Reference: the supplement of paper PMC8728848
Some of the results follow.

How the values were obtained:
Test in all cases: glycan array binding signal (z-score within array); higher = stronger binding
Details in all cases: glycan notation: IUPAC condensed, linker removed
[1] = molecular target: Fuc(a1-2)[Gal(a1-3)]Gal(b1-4)GlcNAc(b1-2)Man(a1-3)[Fuc(a1-2)[Gal(a1-3)]Gal(b1-4)GlcNAc(b1-2)Man(a1-6)]Man(b1-4)GlcNAc(b1-4)GlcNAc
How it was run: (§1)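 The binding signal is a Z-score computed within each array and averaged over linkers. Arrays of the same protein sequence at different concentrations or buffers were also averaged together. Data originate from 3228 arrays in the Consortium for Functional Glycomics database, kept only where the protein sequence was available.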

[2] = molecular target: Fuc(a1-2)[Gal(a1-3)]Gal(b1-4)[Fuc(a1-3)]GlcNAc
How it was run: as §1

[3] = molecular target: Fuc(a1-2)[Gal(a1-4)]Gal(b1-4)GlcNAc
How it was run: as §1

[4] = molecular target: Fuc(a1-2)[GalNAc(a1-3)]Gal
How it was run: as §1

[5] = molecular target: Fuc(a1-2)[GalNAc(a1-3)]Gal(b1-3)GlcNAc
How it was run: as §1

[6] = molecular target: Fuc(a1-2)[GalNAc(a1-3)]Gal(b1-3)GlcNAc(b1-2)Man(a1-3)[Fuc(a1-2)[GalNAc(a1-3)]Gal(b1-3)GlcNAc(b1-2)Man(a1-6)]Man(b1-4)GlcNAc(b1-4)GlcNAc
How it was run: as §1

[7] = molecular target: Fuc(a1-2)[GalNAc(a1-3)]Gal(b1-4)Glc
How it was run: as §1

[8] = molecular target: Fuc(a1-2)[GalNAc(a1-3)]Gal(b1-4)GlcNAc
How it was run: as §1

[9] = molecular target: Fuc(a1-2)[GalNAc(a1-3)]Gal(b1-4)GlcNAc(b1-2)Man(a1-3)[GalNAc(a1-3)[Fuc(a1-2)]Gal(b1-4)GlcNAc(b1-2)Man(a1-6)]Man(b1-4)GlcNAc(b1-4)GlcNAc
How it was run: as §1

[10] = molecular target: Fuc(a1-2)[GalNAc(a1-3)]Gal(b1-4)GlcNAc(b1-3)Gal(b1-4)GlcNAc
How it was run: as §1

[11] = molecular target: Fuc(a1-2)[GalNAc(a1-3)]Gal(b1-4)GlcNAc(b1-3)Gal(b1-4)GlcNAc(b1-3)Gal(b1-4)GlcNAc
How it was run: as §1

[12] = molecular target: Fuc(a1-2)[GalNAc(a1-3)]Gal(b1-4)[Fuc(a1-3)]GlcNAc
How it was run: as §1

[13] = molecular target: Fuc(a1-2)[GalNAc(a1-4)]Gal(b1-4)GlcNAc
How it was run: as §1

[14] = molecular target: Fuc(a1-2)[GalNAc(b1-3)]Gal
How it was run: as §1

[15] = molecular target: Fuc(a1-3)GlcNAc
How it was run: as §1

[16] = molecular target: Fuc(a1-3)[Gal(b1-4)]Glc6S
How it was run: as §1

[17] = molecular target: Fuc(a1-3)[Gal(b1-4)]GlcNAc
How it was run: as §1

[18] = molecular target: Fuc(a1-3)[Gal(b1-4)]GlcNAc(b1-2)Man(a1-3)[Fuc(a1-3)[Gal(b1-4)]GlcNAc(b1-2)Man(a1-6)]Man(b1-4)GlcNAc(b1-4)GlcNAc
How it was run: as §1

[19] = molecular target: Fuc(a1-3)[Gal(b1-4)]GlcNAc(b1-2)Man(a1-6)[Gal(b1-4)GlcNAc(b1-2)Man(a1-3)]Man(b1-4)GlcNAc(b1-4)GlcNAc
How it was run: as §1

[20] = molecular target: Fuc(a1-3)[Gal(b1-4)]GlcNAc(b1-3)Gal(b1-3)[Fuc(a1-4)]GlcNAc
How it was run: as §1

[21] = molecular target: Fuc(a1-3)[Gal(b1-4)]GlcNAc(b1-4)Gal(b1-4)[Fuc(a1-3)]GlcNAc
How it was run: as §1

[22] = molecular target: Fuc(a1-3)[Gal(b1-4)]GlcNAc(b1-4)Gal(b1-4)[Fuc(a1-3)]GlcNAc(b1-4)Gal(b1-4)[Fuc(a1-3)]GlcNAc
How it was run: as §1

[23] = molecular target: Fuc(a1-3)[Gal(b1-4)]GlcNAc6S
How it was run: as §1

[24] = molecular target: Fuc(a1-3)[Gal3S(b1-4)]Glc6S
How it was run: as §1

[25] = molecular target: Fuc(a1-3)[Gal3S(b1-4)]GlcNAc
How it was run: as §1

[26] = molecular target: Fuc(a1-3)[Gal3S(b1-4)]GlcNAc6S
How it was run: as §1

[27] = molecular target: Fuc(a1-3)[GalNAc(b1-4)]GlcNAc
How it was run: as §1

[28] = molecular target: Fuc(a1-3)[Neu5Ac(a2-3)]Gal(b1-4)GlcNAc(b1-3)GalNAc
How it was run: as §1

[29] = molecular target: Fuc(a1-4)GlcNAc
How it was run: as §1

[30] = molecular target: Fuc(b1-3)GlcNAc
How it was run: as §1

[31] = molecular target: Gal(a1-2)Gal
How it was run: as §1

[32] = molecular target: Gal(a1-3)Gal
How it was run: as §1

[33] = molecular target: Gal(a1-3)Gal(b1-3)GlcNAc
How it was run: as §1

[34] = molecular target: Gal(a1-3)Gal(b1-4)Glc
How it was run: as §1

[35] = molecular target: Gal(a1-3)Gal(b1-4)GlcNAc
How it was run: as §1

[36] = molecular target: Gal(a1-3)Gal(b1-4)[Fuc(a1-3)]GlcNAc
How it was run: as §1

[37] = molecular target: Gal(a1-3)Gal(b1-4)[Fuc(a1-3)]GlcNAc(b1-2)Man(a1-3)[Gal(a1-3)Gal(b1-4)[Fuc(a1-3)]GlcNAc(b1-2)Man(a1-6)]Man(b1-4)GlcNAc(b1-4)GlcNAc
How it was run: as §1

[38] = molecular target: Gal(a1-3)GalNAc
How it was run: as §1

[39] = molecular target: Gal(a1-3)[Gal(a1-4)]Gal(b1-4)GlcNAc
How it was run: as §1

[40] = molecular target: Gal(a1-4)Gal(b1-4)Glc
How it was run: as §1

[41] = molecular target: Gal(a1-4)Gal(b1-4)GlcNAc
How it was run: as §1

[42] = molecular target: Gal(a1-4)Gal(b1-4)GlcNAc(b1-3)Gal(b1-4)Glc
How it was run: as §1

[43] = molecular target: Gal(a1-4)GlcNAc
How it was run: as §1

[44] = molecular target: Gal(a1-6)Glc
How it was run: as §1

[45] = molecular target: Gal(b1-2)Gal
How it was run: as §1

B1: DC-ASPGR (Homo sapiens), CLC10_HUMAN (protein)
chain: LDQNSKFQRDLVTLRTDFSNFTSNTVAEIQALTSQGSSLEETIASLKAEVEGFKQERQAVHSEMLLRVQQLVQDLKKLTCQVATLNNNASTEGTCCPVNWVEHQDSCYWFSHSGMSWAEAEKYCQLKNAHLVVINSREEQNFVQKYLGSAYTWMGLSDPEGAWKWVDGTDYATGFQNWKPGQPDDWQGHGLGGGEDCAHFHPDGRWNDDVCQRPYHWVCEAGLGQTSQESHVEPKSCDKTHTCPPCPAPELLGGPSVFLFPPKPKDTLMISRTPEVTCVVVDVSHEDPEVKFNWYVDGVEVHNAKTKPREEQFNSTYRVVSVLTVLHQDWLNGKEYKCKVSNKGLPSSIEKTISKAKGQPREPQVYTLPPSQEEMTKNQVSLTCLVKGFYPSDIAVEWESNGQPENNYKTTPPVLDSDGSFFLYSRLTVDKSRWQEGNVFSCSVMHEALHNHYTQK
glycan array binding signal (z-score) [1]: -0.297 | glycan array binding signal (z-score) [2]: -0.108 | glycan array binding signal (z-score) [3]: -0.15 | glycan array binding signal (z-score) [4]: 1.22 | glycan array binding signal (z-score) [5]: 0.911 | glycan array binding signal (z-score) [6]: -0.203 | glycan array binding signal (z-score) [7]: 0.817 | glycan array binding signal (z-score) [8]: 0.732 | glycan array binding signal (z-score) [9]: -0.164 | glycan array binding signal (z-score) [10]: -0.035 | glycan array binding signal (z-score) [11]: -0.139 | glycan array binding signal (z-score) [12]: -0.097 | glycan array binding signal (z-score) [13]: 1.97 | glycan array binding signal (z-score) [14]: 3.91 | glycan array binding signal (z-score) [15]: -0.256 | glycan array binding signal (z-score) [16]: -0.281 | glycan array binding signal (z-score) [17]: -0.246 | glycan array binding signal (z-score) [18]: -0.188 | glycan array binding signal (z-score) [19]: -0.182 | glycan array binding signal (z-score) [20]: -0.306 | glycan array binding signal (z-score) [21]: -0.099 | glycan array binding signal (z-score) [22]: -0.279 | glycan array binding signal (z-score) [23]: -0.114 | glycan array binding signal (z-score) [24]: -0.142 | glycan array binding signal (z-score) [25]: -0.041 | glycan array binding signal (z-score) [26]: -0.177 | glycan array binding signal (z-score) [27]: 2.36 | glycan array binding signal (z-score) [28]: 1.98 | glycan array binding signal (z-score) [29]: -0.218 | glycan array binding signal (z-score) [30]: -0.235 | glycan array binding signal (z-score) [31]: -0.14 | glycan array binding signal (z-score) [32]: -0.157 | glycan array binding signal (z-score) [33]: -0.157 | glycan array binding signal (z-score) [34]: -0.245 | glycan array binding signal (z-score) [35]: -0.249 | glycan array binding signal (z-score) [36]: -0.218 | glycan array binding signal (z-score) [37]: -0.196 | glycan array binding signal (z-score) [38]: -0.213 | glycan array binding signal (z-score) [39]: -0.314 | glycan array binding signal (z-score) [40]: -0.257 | glycan array binding signal (z-score) [41]: -0.137 | glycan array binding signal (z-score) [42]: -0.182 | glycan array binding signal (z-score) [43]: -0.289 | glycan array binding signal (z-score) [44]: -0.302 | glycan array binding signal (z-score) [45]: -0.225
